Results published in PubChem BioAssay AID651813 (National Center for Advancing Translational Sciences (NCATS), 2012).
Among all 2,100 compounds or so, about 1,100 (52%) were called active. So high a share suggests a set chosen from earlier hits. Inconclusive results, whose numbers are uncertain, are shown with a selection of clear calls. The call rests on the fitted dose curve; in most records, active means well fitted inhibition curve with a large enough effect; inconclusive means small, poorly fitted or top-dose-only effect; inactive means no such curve, though single readings can be large or run the other way. Potencies of inconclusive entries are left out as doubtful fits.

Molecular target: DNA dC->dU-editing enzyme APOBEC-3G (Homo sapiens) (UniProt Q9HC16)
Chain of UniProt Q9HC16 (Q9HC16 whole entry, looked up): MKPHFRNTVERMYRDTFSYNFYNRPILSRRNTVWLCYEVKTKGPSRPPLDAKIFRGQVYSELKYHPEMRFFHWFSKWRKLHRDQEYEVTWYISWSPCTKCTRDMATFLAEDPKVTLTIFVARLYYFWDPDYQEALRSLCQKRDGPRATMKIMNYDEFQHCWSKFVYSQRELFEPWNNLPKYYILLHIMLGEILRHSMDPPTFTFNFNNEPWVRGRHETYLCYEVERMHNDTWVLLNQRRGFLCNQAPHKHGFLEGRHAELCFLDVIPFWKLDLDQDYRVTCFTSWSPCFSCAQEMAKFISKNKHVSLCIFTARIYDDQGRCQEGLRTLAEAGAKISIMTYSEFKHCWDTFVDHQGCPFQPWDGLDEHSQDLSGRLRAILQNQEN
Test: qHTS for inhibitors of Vif-A3G interactions: Cherry picks counterscreen;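 further: hits raise yellow fluorescence by blocking Vif-driven A3G-eYFP degradation; nearly all actives have a fitted effect of over 70% in size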;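 on max response: max response given as percent of control signal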
Details: HeLa A3G-eYFP + Vif (tagged APOBEC3G with the HIV-1 protein that degrades it), eYFP fluorescence, 24 h
Procedure, shortened: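 Readout is eYFP fluorescence (488 nm excitation, 500-530 nm emission) measured on Acumen Explorer after 24 h compound exposure, several concentrations, at 37 deg C. Cells: HeLa stably co-expressing Vif and C-terminally eYFP-tagged A3G; MG132 positive control.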
Potency means the concentration at half of the fitted maximal effect; tags describe the fitted curve by direction and shape.

| Compound | max response | Potency |
| --- | --- | --- |
| CC12CC3CC(C)(C1)CC(C(=O)NC(=S)N1CCOCC1)(C3)C2 | inactive: -26.4% | – |
| O=C(N/N=C/c1ccsc1)c1cc(-c2cccs2)nc2ccccc12 | – | inconclusive [inhibitor, single point] |
| CCOC(=O)C1=C(Cc2ccc(F)cc2)C(=O)c2ccccc2C1=O | – | inconclusive [inhibitor, single point] |
| CC1CCN(C(=O)C(C)Sc2nc(-c3ccccc3)cc(C(F)(F)F)n2)CC1 (stereo unspecified) | inactive: 2.38% | – |
| Cc1sc2ncnc(N=Nc3c(O)[nH]c4ccccc34)c2c1C | – | inconclusive [inhibitor, single point] |
| Cc1ccc(Nc2nc(-c3cccnc3)nc3ccccc23)cc1 | – | inconclusive [inhibitor, single point] |
| CN(C)CCNc1ccc2ncn3c4ccc(O)cc4c(=O)c1c23 | – | inconclusive [inhibitor, single point] |
| O=C1[C@@H]2[C@@H](CN3CN(c4ccccc4)N=C(c4ccccc4)[C@@]23c2ccccc2)C(=O)N1c1ccccc1 | inactive: 3.63% | – |
| CN(C)c1ccc(/C=C/c2ccnc3ccc(-c4ccccc4)cc23)cc1 | – | active: 5.8 µM |
| Nc1c(C(=O)Nc2ccccc2F)sc2nc(-c3ccco3)ccc12 | – | inconclusive [inhibitor, single point] |
| Cc1cccc(C)c1Nc1nc2ccccc2nc1NS(=O)(=O)c1ccccc1 | – | inconclusive [inhibitor, partial curve] |
| O=C(NC1CCCCCC1)c1ccc2c(c1)sc1nc(-c3ccccc3)cn12 | – | inconclusive [inhibitor, single point] |
| CCn1c(O)c(/C=N/NC(=O)c2ccncc2)c(=O)n(CC)c1=S | inactive: -1.22% | – |
| COC(=O)C1=C(C)N(Cc2ccco2)C(=O)/C1=C\c1ccc([N+](=O)[O-])cc1 | – | inconclusive [inhibitor, single point] |
| O=C(OCC12CC3CC(CC(C3)C1)C2)c1ccc(NCc2cc(O)ccc2O)cc1 | inactive: 39.2% | – |
| COc1ccc(-c2nnc(NC(=O)c3ccc([N+](=O)[O-])o3)o2)c(OC)c1 | inactive: -27.9% | – |
| CCCCn1c(N)c(N(CCC(C)C)C(=O)c2ccc([N+](=O)[O-])o2)c(=O)[nH]c1=O | inactive: -4.38% | – |
| O=S(=O)(Nc1nc2ccccc2nc1OCC(F)(F)F)c1cccs1 | inactive: -0.0016% | – |
| O=C(N/N=C/C=C/c1ccco1)c1ccncc1 | inactive: 0.191% | – |
| COc1ccc(Nc2nc3cc(C)ccc3cc2C#N)cc1 | – | active: 18.4 µM |
| C=CCNC(=S)N/N=C(\C)c1ccc(OC)cc1 | inactive: -1.31% | – |
| CN(NC(=O)c1ccccc1)c1nc2ccccc2nc1C(F)(F)F | – | active: 3.53 µM |
| O=C(COc1ccccc1-c1ccccc1)NN=C1CCCC1 | inactive: -18.6% | – |

| Compound | max response | Potency |
| --- | --- | --- |
| COc1ccc(/C=N\NC(=O)c2cc3c(ccc4ccccc43)o2)cc1O | – | inconclusive [inhibitor, single point] |
| CCOC(=O)c1ccc(NC(=O)CSc2nc(-c3ccc(OC)cc3)cc(C(F)(F)F)c2C#N)cc1 | – | active: 23.1 µM |
| COc1ccc(Nc2nc(C)nc3sc4c(c23)CCC4)cc1O | – | inconclusive [inhibitor, partial curve, poor fit] |
| C[C@@H]1O[C@@H](O[C@@H]2C(=O)c3c(O)cc(O)cc3O[C@H]2c2ccc(O)c(O)c2)[C@H](O)[C@H](O)[C@H]1O | inactive: -0.692% | – |
| Cc1ccc(-c2nc(-c3cc4cccc(OCc5cccc(F)c5)c4oc3=O)no2)cc1 | – | active: 23.1 µM |
| Cc1ccc2[nH]c(C(=O)NN=C3CCCCC3)c(-c3ccccc3)c2c1 | inactive: 4.2% | – |
| CC(=O)c1sc(N/N=C\c2c(O)ccc3ccccc23)nc1C | – | inconclusive [inhibitor, single point] |
| COc1ccc2c(C)cc(SCC#N)nc2c1 | – | active: 18.4 µM |
| COc1ccc(CCNC(=O)CC2(CC3=NS(=O)(=O)c4ccccc4N3)CCCC2)cc1OC | inactive: -1.6% | – |
| O=C(NCc1cc(C(F)(F)F)ccc1Cl)c1cccc2c1C(=O)c1ccc(N3CCC(Cc4ccccc4)CC3)cc1S2(=O)=O | – | active: 14 µM |
| COCCNC(=S)N/N=C(\C)c1ccc(OC(F)F)cc1 | inactive: -0.557% | – |
| COc1ccccc1C=CC(=O)C=Cc1ccccc1OC | – | active: 6.27 µM |
| CN(C)c1ccc(/C=N/N(CCO)C2=NS(=O)(=O)c3ccccc32)cc1 | inactive: -24.9% | – |
| O=S(=O)(N=C1C=CC(=NS(=O)(=O)c2ccccc2)c2ccccc21)c1ccccc1 | – | inconclusive [inhibitor, partial curve, poor fit] |
| COc1ccc(N=Cc2c(O)n(-c3ccc(OC)cc3)c(=O)c3ccccc23)cc1 | – | inconclusive [inhibitor, single point] |
| COc1ccc(-n2c(O)c(/C=N/NS(=O)(=O)c3ccc(C)cc3)c3ccccc3c2=O)cc1OC | – | inconclusive [inhibitor, single point] |
| CCOc1ccc(-c2cc(C(=O)N/N=C(\C)c3cccnc3)c3ccccc3n2)cc1 | – | inconclusive [inhibitor, single point] |
| Cc1onc(-c2c(F)cccc2Cl)c1C(=O)O/N=C(\N)c1ccc([N+](=O)[O-])o1 | inactive: 19.3% | – |
| CC[n+]1c(C=C2C=C(C)OC(C)=C2)sc2ccccc21 | – | active: 4.11 µM |
| CC(C)(C)c1ccc(-c2csc(NC(=O)CN3C(=O)NC4(CCCCC4)C3=O)n2)cc1 | – | inconclusive [inhibitor, single point] |
| COc1ccc(NC(=O)c2oc3ccc(S(=O)(=O)N4CCOCC4)cc3c2C)cc1 | inactive: 9.65% | – |
| CC(NC(=S)Nc1cccc(C(F)(F)F)c1)C(C)(C)C (stereo unspecified) | inactive: 21.6% | – |
| CC(C)=CCn1c2ccc(NC(=O)NCc3ccc(F)cc3)cc2c(=O)n1C | – | inconclusive [inhibitor, full curve] |
